The text below walks through data of US11427549B2, “Pyrimidinyloxy benzo-fused compounds as herbicides” (FMC Corporation, priority 2017, dated 2022).

In the first assay the test system is sedge, umbrella (small-flower umbrella sedge, Cyperus difformis). Nature of the assay: Test B flooded paddy test, sedge, umbrella. Conditions: Cyperus difformis, read-out: Plant response rating, Sedge, Umbrella (0 to 100 scale, 0 is no effect, 100 is complete control).
Turning to `FC(F)(F)CCC1OCc2cccc(Oc3ncc(Cl)cn3)c21` (stereo not shown) [Compound 8, 5-Chloro-2-[[1,3-dihydro-3-(3,3,3-trifluoropropyl)-4-isobenzofuranyl]oxy]pyrimidine], the pest or weed control at 250 g/ha worked out at 100%.
Still for that read-out and setting: for `FC(F)(F)CCCC1COc2cccc(Oc3ncc(Cl)cn3)c21` (stereo not shown) [Compound 33, 5-Chloro-2-[[2,3-dihydro-3-(4,4,4-trifluorobutyl)-4-benzofuranyl]oxy]pyrimidine] the value was 75%; for `FC(F)(F)CCC1OCCc2cccc(Oc3ncc(Cl)cn3)c21` (stereo not shown) [Compound 32, 5-Chloro-2-[[3,4-dihydro-1-(3,3,3-trifluoropropyl)-1H-2-benzopyran-8-yl]oxy]pyrimidine], 98%; for `O=C1COC(CCCC(F)(F)F)c2c(Oc3ncc(Cl)cn3)cccc21` (stereo not shown) [Compound 5, 8-[(5-Chloro-2-pyrimidinyl)oxy]-1-(4,4,4-trifluorobutyl)-1H-2-benzopyran-4(3H)-one], 70%.
The same measure, in the same setting: to `FC(F)(F)CC[C@@H]1OCc2cccc(Oc3ncc(Cl)cn3)c21` [Compound 21, 5-Chloro-2-[[(3S)-1,3-dihydro-3-(3,3,3-trifluoropropyl)-4-isobenzofuranyl]oxy]-pyrimidine] belongs 0%.
On the same count and under the same terms, for `O=C1OCC(CCC(F)(F)F)c2c(Oc3ncc(Cl)cn3)cccc21` (stereo not shown) [Compound 25, 5-[(5-Chloro-2-pyrimidinyl)oxy]-3,4-dihydro-4-(3,3,3-trifluoropropyl)-1H-2-benzopyran-1-one] the value was 0%.
Consider `O=C1OC(CCCC(F)(F)F)c2c(Oc3ncc(Cl)cn3)cccc21` (stereo not shown) [Compound 1, 4-[(5-Chloro-2-pyrimidinyl)oxy]-3-(4,4,4-trifluorobutyl)-1(3H)-isobenzofuranone], for which the pest or weed control at 250 g/ha worked out at 70%.
Still for that read-out and setting: for `O=C1c2cccc(Oc3ncc(Cl)cn3)c2C1CCCC(F)(F)F` (stereo not shown) [Compound 22, 2-[(5-Chloro-2-pyrimidinyl)oxy]-8-(4,4,4-trifluorobutyl)bicyclo[4.2.0]octa-1,3,5-trien-7-one] the value was 90%.
Turning to `O=C1O[C@H](CCCC(F)(F)F)c2c(Oc3ncc(Cl)cn3)cccc21` [Compound 3, (3R)-4-[(5-Chloro-2-pyrimidinyl)oxy]-3-(4,4,4-trifluorobutyl)-1-(3H)-isobenzofuranone], the pest or weed control at 250 g/ha turned out to be 100%.
The same measure, in the same setting: to `O=C1NC(CCCC(F)(F)F)c2c(Oc3ncc(Cl)cn3)cccc21` (stereo not shown) [Compound 13, 4-[(5-Chloro-2-pyrimidinyl)oxy]-2,3-dihydro-3-(4,4,4-trifluorobutyl)-1H-isoindol-1-one] belongs 0%; to `O=C1OCc2cccc(Oc3ncc(Cl)cn3)c2C1CCC(F)(F)F` (stereo not shown) [Compound 29, 5-[(5-Chloro-2-pyrimidinyl)oxy]-1,4-dihydro-4-(3,3,3-trifluoropropyl)-3H-2-benzopyran-3-one], 0%; to `O=C1O[C@@H](CCC(F)(F)F)c2c(Oc3ncc(Cl)cn3)cccc21` [Compound 18, (3S)-4-[(5-Chloro-2-pyrimidinyl)oxy]-3-(3,3,3-trifluoropropyl)-1(3H)-isobenzofuranone], 0%.
Same read-out and setting: to `O=C1O[C@H](CCC(F)(F)F)c2c(Oc3ncc(Cl)cn3)cccc21` [Compound 19, (3R)-4-[(5-Chloro-2-pyrimidinyl)oxy]-3-(3,3,3-trifluoropropyl)-1(3H)-isobenzofuranone] belongs 100%.
Same read-out and setting: for `FC(F)(F)CCC1COc2cccc(Oc3ncc(Cl)cn3)c21` (stereo not shown) [Compound 36, 5-Chloro-2-[[2,3-dihydro-3-(3,3,3-trifluoropropyl)-4-benzofuranyl]oxy]pyrimidine] the value was 20%; for `OC1CC(CCCC(F)(F)F)c2c(Oc3ncc(Cl)cn3)cccc21` (stereo not shown) [Compound 10, 4-[(5-Chloro-2-pyrimidinyl)oxy]-2,3-dihydro-3-(4,4,4-trifluorobutyl)-1H-inden-1-ol], 95%; for `O=C1CCC(CCCC(F)(F)F)c2c(Oc3ncc(Cl)cn3)cccc21` (stereo not shown) [Compound 30, 5-[(5-Chloro-2-pyrimidinyl)oxy]-3,4-dihydro-4-(4,4,4-trifluorobutyl)-1(2H)-naphthalenone], 95%.
Take `FC(F)(F)CC[C@H]1OCc2cccc(Oc3ncc(Cl)cn3)c21` [Compound 20, 5-Chloro-2-[[(3R)-1,3-dihydro-3-(3,3,3-trifluoropropyl)-4-isobenzofuranyl]oxy]-pyrimidine]: the pest or weed control at 250 g/ha came to 100%.
On the same count and under the same terms, for `O=C1OC(CCCCC(F)(F)F)Cc2c(Oc3ncc(Cl)cn3)cccc21` (stereo not shown) [Compound 31, 5-[(5-Chloro-2-pyrimidinyl)oxy]-3,4-dihydro-3-(5,5,5-trifluoropentyl)-1H-2-benzopyran-1-one] the value was 0%; for `O=C1Cc2cccc(Oc3ncc(Cl)cn3)c2C(CCC(F)(F)F)O1` (stereo not shown) [Compound 28, 8-[(5-Chloro-2-pyrimidinyl)oxy]-1,4-dihydro-1-(3,3,3-trifluoropropyl)-3H-2-benzopyran-3-one], 0%.
Same read-out and setting: for `OC1(CCC(F)(F)F)CCc2cccc(Oc3ncc(Cl)cn3)c21` (stereo not shown) [Compound 14, 7-[(5-Chloro-2-pyrimidinyl)oxy]-2,3-dihydro-1-(3,3,3-trifluoropropyl)-1H-inden-1-ol] the value was 50%; for `FC(F)(F)CCCC1OCc2cccc(Oc3ncc(Cl)cn3)c21` (stereo not shown) [Compound 7, 5-chloro-2-[[1,3-dihydro-3-(4,4,4-trifluorobutyl)-4-isobenzofuranyl]oxy]-pyrimidine], 100%.
On the same count and under the same terms, to `FC(F)(F)CCCC1OCCc2cccc(Oc3ncc(Cl)cn3)c21` (stereo not shown) [Compound 27, 5-Chloro-2-[[3,4-dihydro-1-(4,4,4-trifluorobutyl)-1H-2-benzopyran-8-yl]oxy]pyrimidine] belongs 95%; to `CN1C(=O)c2cccc(Oc3ncc(Cl)cn3)c2C1CCCC(F)(F)F` (stereo not shown) [Compound 12, 4-[(5-Chloro-2-pyrimidinyl)oxy]-2,3-dihydro-2-methyl-3-(4,4,4-trifluorobutyl)-1H-isoindol-1-one], 0%.
With `O=C1OCc2cccc(Oc3ncc(Cl)cn3)c2C1CCCCC(F)(F)F` (stereo not shown) [Compound 34, 5-[(5-Chloro-2-pyrimidinyl)oxy]-1,4-dihydro-4-(5,5,5-trifluoropentyl)-3H-2-benzopyran-3-one], the pest or weed control at 250 g/ha worked out at 0%.
Same read-out and setting: for `O=C1O[C@@H](CCCC(F)(F)F)c2c(Oc3ncc(Cl)cn3)cccc21` [Compound 2, (3S)-4-[(5-Chloro-2-pyrimidinyl)oxy]-3-(4,4,4-trifluorobutyl)-1-(3H)-isobenzofuranone] the value was 0%.
On the same count and under the same terms, for `O=C1OC(CCC(F)(F)F)c2c(Oc3ncc(Cl)cn3)cccc21` (stereo not shown) [Compound 4, 4-[(5-Chloro-2-pyrimidinyl)oxy]-3-(3,3,3-trifluoropropyl)-1(3H)-isobenzofuranone] the value was 100%.
Still for that read-out and setting: to `O=C1Cc2cccc(Oc3ncc(Cl)cn3)c2C(CCCC(F)(F)F)O1` (stereo not shown) [Compound 17, 8-[(5-Chloro-2-pyrimidinyl)oxy]-1,4-dihydro-1-(4,4,4-trifluorobutyl)-3H-2-benzopyran-3-one] belongs 0%.
Consider `O=C1OC(CCC(F)(F)F)Cc2c(Oc3ncc(Cl)cn3)cccc21` (stereo not shown) [Compound 23, 5-[(5-Chloro-2-pyrimidinyl)oxy]-3,4-dihydro-3-(3,3,3-trifluoropropyl)-1H-2-benzopyran-1-one], for which the pest or weed control at 250 g/ha came to 0%.
On the same count and under the same terms, for `CCCC1OC(=O)Cc2cccc(Oc3ncc(Cl)cn3)c21` (stereo not shown) [Compound 35, 8-[(5-Chloro-2-pyrimidinyl)oxy]-1,4-dihydro-1-propyl-3H-2-benzopyran-3-one] the value was 0%.
On the same count and under the same terms, for `O=C1c2cccc(Oc3ncc(Cl)cn3)c2C1CCC(F)(F)F` (stereo not shown) [Compound 24, 2-[(5-Chloro-2-pyrimidinyl)oxy]-8-(3,3,3-trifluoropropyl)bicyclo[4.2.0]octa-1,3,5-trien-7-one] the value was 80%.
Same read-out and setting: to `FC(F)(F)CCCC1CCc2cccc(Oc3ncc(Cl)cn3)c21` (stereo not shown) [Compound 9, 5-Chloro-2-[[2,3-dihydro-3-(4,4,4-trifluorobutyl)-1H-inden-4-yl]oxy]pyrimidine] belongs 100%.

Staying with this assay, now noted: Flood, 250 g ai/ha, applied to paddy water, 2-leaf stage, visually evaluated after 13 to 15 days.
As for `O=C1CC(CCCC(F)(F)F)c2c(Oc3ncc(Cl)cn3)cccc21` (stereo not shown) [Compound 6, 4-[(5-Chloropyrimidin-2-pyrimidinyl)oxy]-2,3-dihydro-3-(4,4,4-trifluorobutyl)-1H-inden-1-one], the “Plant response rating, Sedge, Umbrella (0 to 100 scale, 0 is no effect, 100 is complete control)” value worked out at 100.
The same measure, in the same setting: to `O=C1OCC(CCCC(F)(F)F)c2c(Oc3ncc(Cl)cn3)cccc21` (stereo not shown) [Compound 16, 5-[(5-Chloro-2-pyrimidinyl)oxy]-3,4-dihydro-4-(4,4,4,-trifluorobutyl)-1H-2benzopyran-1-one] belongs 90; to “5-Chloro-2-[[1-oxido-3-(4,4,4-trifluorobutyl)-3H-2,1-benzoxathiol-4-yl]oxy]pyrimidine [Compound 15]”, 0.
